IC50 data for three molecules are collected here from patent US20170088605A1.

Assay [1] deals with BKV serotype IV VLP (BK virus serotype IV), P14996. The assay is described as follows: ELISA on coated BKV serotype IV VLPs. Particulars: remark: other sources report otherwise.
In assay [2] the target is BKV serotype IV VP1 pentamer (BK virus serotype IV), P14996. Briefly: ELISA on coated BKV serotype IV VP1 pentamers. The note with it: remark: other sources report otherwise.

Where a chain is given by its changes, count along the chain named.

B1: EBB-C1975-A7 (antibody)
heavy: QVQLVESGGGLVQPGGSLRLSCAASGFTVSRNYMSWVRQAPGKGLEWVSGIYSGGSTYYADSVKGRFTISRDYSKNTLSLQMNTLRVEDTAVYFCAREDEFWSGYSAGVDWGQGTLVTVSSASTKGPSVFPLAPSSKSTSGGTAALGCLVKDYFPEPVTVSWNSGALTSGVHTFPAVLQSSGLYSLSSVVTVPSSSLGTQTYICNVNHKPSNTKVDKRV[sequence of human IgG1 Fc omitted]
light: [sequence of about 100 residues omitted][sequence of about 100 residues omitted]
In the case of B1, the half-maximal inhibitory concentration (IC50) was determined as 0.081 nM in assay [1] and 0.078 nM in assay [2].

B2: EBB-C1975-E7 (antibody, human IgG1, kappa)
heavy: B1 heavy with Q1E, V5L, Q13R, L20V, S53G, S56R, D61E, S79F, V92L
light: DIQVTQSPSSLSASVGDRVTITCRASQSISSYLNWYQQEPGKAPKLLIYAASTLQTGVPSRFSGSGSGTDFTLTISSLQPEDFATYYCQQSYNTPRTFGQGTKVEIKRTVAAPSVFIFPPSDEQLKSGTASVVCLLNNFYPREAKVQWKVDNALQSGNSQESVTEQDSKDSTYSLSSTLTLSKADYEKHKVYACEVTHQGLSSPVTKSFNRGEC
In assay [1], B2 registered an IC50 of 0.044 nM.

B3: EBB-C1975-A3 (antibody)
heavy: B1 heavy with Q1E, S7T, S30R
light: [sequence of about 100 residues omitted][sequence of about 100 residues omitted]
Regarding B3, the 50% inhibitory concentration (IC50) in assay [1] is 0.045 nM; in assay [2] it was 0.064 nM.
